Test results reported in PubChem BioAssay AID1458 (National Center for Advancing Translational Sciences (NCATS), 2008).
Hit rate of the full screen: of about 210,000 compounds, about 5,900 (2.8%) were called active. The inconclusive results got no clear call from the source; some entries with a clear call stand among them for comparison. The call rests on the fitted dose curve; in most records, active means well fitted activation curve with a large enough effect; inconclusive means small, poorly fitted or top-dose-only effect; inactive means no such curve, though single readings can be large or run the other way. Potencies beside an inconclusive call are fits to weak or partial responses and may not hold up.

Experiment: qHTS Assay for Enhancers of SMN2 Splice Variant Expression; further: nearly all actives have a fitted effect of over 55% in size; on activity change, positive = activation: % of control where 0% means no effect
Details: HEK293 SMN2-luciferase splicing reporter, luminescence, 30-36 h; activity change, positive = activation: at 46.1 µM (top of the series)
Procedure, shortened: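 HEK293 cells carry an SMN2 minigene-luciferase reporter in which exon 7 inclusion puts luciferase in frame. Cells were seeded at 2000 cells/well, attached for 10-12 hours, then exposed to compounds for 30-36 hours at 37C before ONE-Glo luminescence.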
Potency means the concentration at half of the fitted maximal effect; tags describe the fitted curve by direction and shape.

Compound | Potency | activity change, positive = activation
COc1cc(NC(=S)N2CCN(C(c3ccccc3)c3ccccc3)CC2)cc(OC)c1 | active: 12.6 µM | 
Cc1cnc(C(=O)Nc2ccccc2F)cn1 | inconclusive: 12.6 µM [activator, partial curve, poor fit] | 
CNC(=S)N(Cc1cccs1)Cc1cc2cc(OC)ccc2[nH]c1=O | inactive | 
CCn1c(=O)cc(SCC(=O)N2CCN(C)CC2)c2ccccc21 | inconclusive: 12.6 µM [activator, single point] | 
COc1ccc(C(C)=O)cc1CSc1nnc(-c2ccc(Cl)cc2)n1-c1ccccc1 | inactive | 
Cc1cc(C)n(-c2ccc(C(=O)NC3=NCCS3)cc2)n1 | inconclusive: 11.2 µM [activator, partial curve] | 
COc1ccc(-c2nc(N3CCOCC3)nc3n[nH]c(N)c23)cc1 | inconclusive: 5.62 µM [activator, partial curve, poor fit] | 
C/C(=N\Nc1ccccc1[N+](=O)[O-])c1ccc(N2CCOCC2)cc1 | inconclusive: 3.55 µM [activator, partial curve, poor fit] | 
CCS(=O)(=O)N1Cc2ccccc2CC1C(=O)Nc1nccs1 (stereo not drawn) | active: 17.8 µM | 
Cc1ccnc2nc(C(=O)Nc3nccs3)nn12 | inconclusive: 7.08 µM [activator, partial curve] | 
CC(=O)NCCc1cc2ccc(C)c(C)c2[nH]c1=O | inconclusive: 0.01 µM [activator, full curve, poor fit] | 
O=C(CC1NCCc2ccccc21)Nc1ccccc1 (stereo not drawn) | inconclusive: 5.01 µM [activator, full curve] | 
COc1ccc2[nH]c3c(c2c1)CCN(C(=O)c1cccc(Cl)c1)C3c1ccc(F)cc1 (stereo not drawn) | inconclusive: 25.1 µM [activator, single point] | 
COc1ccc(C2=C(N)c3ccccc3C2=O)cc1 | inconclusive: 5.62 µM [activator, partial curve, poor fit] | 
COc1ccc(/C=N/Nc2nc3ccccc3c(=O)[nH]2)cc1 | active: 12.6 µM | 
COc1ccc2nc(C)cc(SCC(=O)O)c2c1 | inactive | 
CCCC(=O)Nc1nc2ccc(NC(=O)c3ccc(Br)o3)cc2s1 | inconclusive: 0.0141 µM [activator, full curve] | 
CCN(CC)CCOC(=O)c1ccc(NC(=O)Cn2ncc3c2-c2cc(C)ccc2OC3)cc1 | inactive | 
Cc1ccc(N2C(=O)[C@@H]3Cc4ccccc4CN3C2=O)cc1 |  | inconclusive: 35.5% [activator]
CC(C)(C)NCCCOc1ccc(Cl)cc1C(C)(C)C | inconclusive: 5.62 µM [activator, single point] | 
Cc1ccc(NCc2nnc(SCCN3CCCCC3)n2CC2CCCO2)cc1Cl (stereo not drawn) | inconclusive: 0.112 µM [activator, full curve] | 
Cc1cc(=O)[nH]c(N/N=C/c2c(C)oc3ccccc23)n1 | inactive | 
Cc1cc(=O)[nH]c2cc(Cl)ccc12 | inconclusive: 1 µM [activator, full curve] | 
CC(C)OP(=O)(c1ccc(N(C)C)cc1)C(O)c1ccccc1 (stereo not drawn) | inconclusive: 0.0891 µM [activator, full curve, poor fit] | 
CCn1c(=O)cc(SCC(=O)NCc2ccc(OC)cc2OC)c2ccccc21 | inactive | 

Compound | Potency | activity change, positive = activation
Fc1cccc2sc(Nc3nc4cc5c(cc4s3)OCCO5)nc12 | inconclusive: 1 µM [activator, partial curve] | 
CC(=O)/C(=N\Nc1ccccc1)Sc1cccc2cccnc12 | inconclusive: 0.0316 µM [activator, full curve, poor fit] | 
Cc1ccc2nc(NC(=O)c3ccc(Cl)s3)sc2c1 | active: 12.6 µM | 
Fc1ccc2nc(Nc3nc4cc5c(cc4s3)OCO5)sc2c1 | active: 11.2 µM | 
CC(NC(=O)c1sc2ccccc2c1Cl)C1CCCO1 (stereo not drawn) | active: 11.2 µM | 
CC(C)(C)NC(=O)CN(Cc1cccs1)C(=O)CNS(=O)(=O)c1ccccc1 | inconclusive: 35.5 µM [activator, partial curve, poor fit] | 
OC(CNCCc1ccc(Cl)cc1)COc1ccc2ccccc2c1 (stereo not drawn) | inconclusive: 31.6 µM [activator, single point] | 
O=C(N/N=C/c1cn(-c2ccccc2)nc1-c1cccnc1)c1cccnc1 | inactive | 
COc1ccc(CCC2(C)NC(=O)NC2=O)cc1 (stereo not drawn) | inconclusive: 35.5 µM [activator, single point] | 
Cc1ccc(C(=O)NCCSC(C)(C)C)cc1 | active: 10 µM | 
Cc1ccc(/C=N/Nc2ccc3ccccc3n2)o1 | active: 1.12 µM | 
c1ccc(Cn2c(-c3cncs3)nc3ccccc32)cc1 | inconclusive: 35.5 µM [activator, single point] | 
COc1ccc(-c2nnc(-c3cccnc3)o2)cc1 | inconclusive: 15.8 µM [activator, single point] | 
Clc1cc(Cl)c2nc(N3CCCCC3)sc2c1 | inconclusive: 1.12 µM [activator, partial curve] | 
Cc1c(C(=O)Nc2ccccc2)sc2nc(-c3ccccc3)cn12 | inconclusive: 14.1 µM [activator, single point] | 
CCOC(=O)c1cc2c(nc1N)CC(C)(CC)OC2 (stereo not drawn) | inconclusive: 12.6 µM [activator, partial curve] | 
CCOc1ccc(C(O)Cc2nc3ccccc3n2C)cc1 (stereo not drawn) | inconclusive: 20 µM [activator, partial curve, poor fit] | 
CCOc1ccc2c(c1)C(=NNC(=O)c1ccncc1)c1cc(OCC)ccc1-2 | inactive | 
Cc1ccc2nc(/C=C/c3cccc(F)c3)ccc2c1 | active: 10 µM | 
O=[N+]([O-])c1cc(-c2cnc3ccccc3n2)ccc1Oc1ccc(F)cc1 | inactive | 
COc1ccc(NC(=O)CSc2ncc3c(n2)-c2ccccc2N(Cc2ccc(C)cc2)S3(=O)=O)cc1Cl | inactive | 
O=C(c1ccco1)n1c(=S)nc2ccccn21 | inconclusive: 12.6 µM [activator, partial curve] | 
COc1ccc(N(CC(=O)Nc2ccc3c(c2)OCO3)S(=O)(=O)c2ccc(F)cc2)cc1 | inconclusive: 0.0891 µM [activator, full curve] | 
CCCCn1c(NC(=O)c2ccccc2)nc2ccccc21 | inactive | 
O=c1c2[nH]c3ccccc3c2ncn1C1CCCCC1 | inactive | 

Compound | Potency | activity change, positive = activation
CCC(=O)N1Cc2ccccc2-c2ccccc2C1=O | inconclusive: 0.1 µM [activator, full curve, poor fit] | 
COC(=O)c1ccccc1NC(=O)[C@H]1O[C@@H]2OC(C)(C)O[C@@H]2[C@H]2OC(C)(C)O[C@H]21 | inactive | 
Cc1ccc(O)c(C(=O)/C=C/c2ccc3c(c2)OCCCO3)c1 | inconclusive: 0.0501 µM [activator, full curve, poor fit] | 
CCCCCCC(=O)Nc1ccc2nc3c(=O)n(C)c(=O)n(C)c3nc2c1C | inactive | 
COc1ccc(C(=O)Nc2oc(-c3ccccc3)c(-c3ccccc3)c2C#N)cc1 | inconclusive: 35.5 µM [activator, single point] | 
CC1=NN(c2ccc([N+](=O)[O-])cc2)C(=O)/C1=C\N(C)C | inactive | 
CCn1cc(C(=O)NCCCOC(C)C)c(=O)c2cc(S(=O)(=O)N3CCOCC3)ccc21 | inconclusive: 0.02 µM [activator, full curve, poor fit] | 
Cc1ccccc1NC(=S)NNC(=O)c1cccnc1 | inconclusive: 5.62 µM [activator, single point] | 
COCC(C)n1c(SCc2ccc(OC)c(F)c2)nc2ccccc2c1=O (stereo not drawn) | inactive | 
CN(C)c1ccc(C(=O)OCC(=O)c2cccs2)cc1 | active: 6.31 µM | 
Cn1c2ccc(F)cc2c2ncn(CCN3CCOCC3)c(=O)c21 | inconclusive: 1.12 µM [activator, full curve, poor fit] | 
CC(C)OC(=O)C1C2C=CC3(CN(C(C)c4ccc(Br)cc4)C(=O)C13)O2 (stereo not drawn) | inconclusive: 10 µM [activator, partial curve, poor fit] | 
CC1(C)Oc2ccc3ccc(=O)oc3c2-c2cn[nH]c21 | active: 14.1 µM | 
CC(=O)Oc1ccc(N(C(C)=O)S(=O)(=O)c2cccs2)cc1 | inconclusive: 5.62 µM [activator, single point] | 
COc1cccc(NC(=O)NCc2ccc(F)cc2)c1 | inconclusive: 3.16 µM [activator, partial curve] | 
O=C(Nc1ccccc1)c1cccc(N2CCCC2=O)c1 | inconclusive: 12.6 µM [activator, partial curve, poor fit] | 
COc1cccc(N2CC(C(=O)Nc3nnc(SCC(=O)Nc4cc(C)on4)s3)CC2=O)c1 (stereo not drawn) | inconclusive: 31.6 µM [activator, single point] | 
CCN(CC)C(=O)c1cc(-c2ccc(Br)cc2)on1 | inconclusive: 35.5 µM [activator, single point] | 
CCN(CCCNC(=O)COc1cc(=O)n(CC)c2ccccc12)Cc1ccccc1 | inconclusive: 15.8 µM [activator, single point] | 
Cc1ccccc1/C=N/NC(=O)CSc1nc2ccccc2o1 | inconclusive: 7.08 µM [activator, partial curve] | 
Cc1cc(C)cc(N(C(=O)Cn2nnc3ccccc32)C(C(=O)NCc2ccco2)c2ccncc2)c1 (stereo not drawn) | inconclusive: 1.26 µM [activator, full curve, poor fit] | 
Cc1ccc(Cn2c(=O)n(-c3cccc(C(F)(F)F)c3)c(=O)c3c(C)c(C)sc32)c(C)c1 | inactive | 
CC(C)CN1CCC(C(=O)N2CCN(c3ccccc3F)CC2)CC1 | inconclusive: 35.5 µM [activator, single point] | 
